The whole screen tested about 360,000 compounds, of which about 6,000 (1.7%) were called active. This list was built around the results that the source calls inconclusive (neither active nor inactive); the mix of calls is not that of the screen. Calls follow the shape of the dose curve; as a rule, active = well fitted cell-killing curve with a large enough effect; inconclusive = small, poorly fitted or top-dose-only effect, or effect the other way; inactive = flat fitted curve, though single readings scatter. No potency is given beside an inconclusive call; the fits are too rough.
experiment: qHTS for induction of synthetic lethality in tumor cells producing 2HG: qHTS for the HT-1080-NT fibrosarcoma cell line; conditions: HT-1080-NT fibrosarcoma viability, CellTiter-Glo ATP luminescence, 48 h; activity, negative = less viability: at 46.1 µM (top of the series) unless noted;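 also: NT is the 2HG producing partner of a matched IDH1 knockdown line; nearly all actives have a fitted effect of over 55% in size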;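 as to activity, negative = less viability: 0% = DMSO-treated cells and -100% = media-only wells without cells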
Summary of the method: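 Viability by CellTiter-Glo luminescence after 48 h compound exposure at 37C of HT-1080-NT cells (750/well, RPMI, 5% FBS). % activity scaled between DMSO wells and medium-only wells, then curve-fitted and categorized by curve class.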
Potency is read from the fitted curve at half-maximal effect; tags tell the direction and shape of the fitted curve.

| Structure (SMILES) | Potency | activity, negative = less viability |
| --- | --- | --- |
| Cc1ccc[n+](-c2[nH]c(=O)sc2/C=N/NC(=O)c2ccccc2[O-])c1 | inactive | – |
| Cc1cc(C)n(CC(=O)N/N=C/c2cccs2)n1 | inconclusive [rising, single point] | – |
| Cc1cc(C(=O)NNc2ccc(Cl)cc2)no1 | active: 2.31 µM | – |
| COc1cc(/C=N/OCC(=O)Nc2ccc(OC(F)F)cc2)ccc1OCc1ccccc1 | inconclusive [cytotoxic, single point] | – |
| CCOC(=O)C1=C[C@@H](C(C)(C)C)N(S(=O)(=O)c2ccc([N+](=O)[O-])cc2)[C@H]1c1ccccc1 | inconclusive [cytotoxic, single point] | – |
| CC1CCC(C(C)C)C(OC(=O)C[n+]2cc(-c3ccc(Cl)cc3)n3c2CCCCC3)C1 (stereo not drawn) | active: 20.6 µM | – |
| O=C1CC(c2ccc(Cl)cc2)c2c(O)cc(O)cc2O1 (stereo not drawn) | inconclusive [cytotoxic, partial curve] | – |
| Brc1ccc(/C=N/Nc2ccccn2)cc1 | inactive | – |
| CCCCCCCCN1C(=O)[C@H](CC(=O)NCc2ccccc2)C[C@@]2(C(=O)OCC)CCCC=C12 | inconclusive [cytotoxic, single point] | – |
| CN1CC2(Cc3c1ccc1ccccc31)C(=O)OC(C)(C)OC2=O | active: 23.1 µM | – |
| Cc1cc(Oc2cccc3c2S(=O)(=O)N(C2CCCC2)CC(COCc2ccccc2)O3)cc(C)c1C (stereo not drawn) | – | inconclusive: 1.13% [cytotoxic] |
| CC(=O)N1CCC2(CC1)C/C(=N\NC(=S)Nc1ccc(C)cc1)c1cc(O)ccc1O2 | inconclusive [cytotoxic, single point] | – |
| CC(C)CC(=O)NC(NC(=S)Nc1sc2c(c1C#N)CCCC2)C(Cl)(Cl)Cl (stereo not drawn) | inconclusive [cytotoxic, single point] | – |
| CN(C)C(CNC(=O)c1ccc(-c2ccccc2)cc1)c1ccccc1 (stereo not drawn) | active: 16.4 µM | – |
| O=C(CCl)N(CCc1ccccc1)CCc1ccccc1 | inconclusive [cytotoxic, single point] | – |
| CCOc1ccc(C(=O)CC(NCc2cccs2)C(=O)O)cc1 (stereo not drawn) | inactive | – |
| CC(C)[C@H](NC(=O)c1ccccc1Cl)C(=O)Nc1nc(-c2ccccn2)cs1 | – | inconclusive: -33.3% [cytotoxic] |
| CC1CCCN(C(=O)c2ccc(Cl)c(S(=O)(=O)N3CCCCCC3)c2)C1 (stereo not drawn) | inactive | – |
| Cc1oc(C(N)=O)nc1-c1ccccc1 | inconclusive [rising, partial curve] | – |
| COc1ccc(C(O)(C2CCCCC2)C(CN2CCCC2)c2ccccc2)cc1 (stereo not drawn) | inconclusive [cytotoxic, single point] | – |
| Fc1ccc(C(c2nnnn2Cc2cccs2)N2CCN(C3CCCC3)CC2)cc1 (stereo not drawn) | inconclusive [cytotoxic, full curve, poor fit] | – |
| Cc1ccccc1-c1noc(N)c1C#N | inconclusive [cytotoxic, partial curve, poor fit] | – |
| CCOc1ccc(-c2nnc(Nc3ccc(OC)c(C(=O)N4CCCCC4)c3)c3ccccc23)cc1 | inconclusive [cytotoxic, single point] | – |
| Cc1ccc2nc(-c3ccccc3)c(Cc3cccc(Cl)c3)n2c1 | inconclusive [cytotoxic, single point] | – |
| CC(C)c1ccc(C(=O)N/N=C/c2cccc(Cl)c2Cl)cc1 | inactive | – |

| Structure (SMILES) | Potency | activity, negative = less viability |
| --- | --- | --- |
| O=S(=O)(c1ccccc1)N(CC(O)Cn1c2ccccc2c2ccccc21)c1ccccc1 (stereo not drawn) | inconclusive [cytotoxic, single point] | – |
| CCC(C)NCCC(=O)Nc1ccc(Cl)c(S(=O)(=O)Nc2ccc(Cl)cc2)c1 (stereo not drawn) | inconclusive [cytotoxic, single point] | – |
| NS(=O)(=O)c1cccc(NS(=O)(=O)c2ccc(/C=C/C(=O)O)cc2)c1 | inactive | – |
| Cc1nc2ccc(Cc3ccc4nc(C)[nH]c4c3)cc2[nH]1 | inactive | – |
| Cc1cccc(-c2cc3nc4c(c(NCc5ccco5)n3n2)CCCC4)c1 | inconclusive [cytotoxic, single point] | – |
| CCCc1cc(=O)n2[nH]c(NC(=O)c3ccco3)nc2n1 | inconclusive [rising, partial curve, poor fit] | – |
| O=C(O)C1CCCCC1C(=O)NCc1ccccc1 (stereo not drawn) | inconclusive [cytotoxic, single point] | – |
| CCCc1nn2c(=O)cc(CSCC(=O)Nc3ccc(OC)cc3)nc2s1 | inactive | – |
| CCC(=O)Oc1ccc(NC(=O)c2ccc(S(=O)(=O)N3CCCC3)cc2)cc1 | inactive | – |
| CN=C1CC(C)(C)CC(=O)/C1=C(/O)CCC(=O)NC | inactive | – |
| COc1ccc([N+](=O)[O-])cc1Nc1c2ccccc2nc2ccccc12 | active: 5.17 µM | – |
| CCOC(=O)c1[nH]c(C)c(C(=O)Nc2ccccc2C)c1C | active: 5.8 µM | – |
| COc1ccc(N2CC(NC(=O)N(C)CCC#N)CC2=O)cc1 (stereo not drawn) | inconclusive [rising, single point] | – |
| Cc1ccc(N(CC(=O)NCCc2ccccc2)C(=O)CCC(=O)Nc2cc(C)ccn2)cc1 | inconclusive [cytotoxic, partial curve, poor fit] | – |
| COc1ccc(C2=CC(c3ccc(C)cc3)n3nnnc3N2)cc1 (stereo not drawn) | inconclusive [cytotoxic, single point] | – |
| O=C(/C=C/c1cccc(F)c1)NC1CCN(Cc2ccccc2)CC1 | inactive | – |
| O=C(COC(=O)Cc1c[nH]c2ccccc12)Nc1c(Cl)cccc1C(F)(F)F | inactive | – |
| CCOc1cccc(/C=N/NC(=O)c2cccnc2)c1O | inconclusive [cytotoxic, full curve] | – |
| O=C(Nc1ccccc1)/C(=C\c1ccc(F)cc1)NC(=O)c1ccco1 | inactive | – |
| CCN(C(=O)c1cnc(NC(C)C)cc1C(F)(F)F)c1ccc(Cl)cc1Cl | inconclusive [cytotoxic, single point] | – |
| CCc1nc2ccc(C(=O)Nc3cccc(OC)c3)cn2c1N(CCC(C)C)CCN(C)C | active: 18.4 µM | – |
| CCNC(=O)C1(C)CCN(C(=O)CCc2ccccc2)C1 (stereo not drawn) | inconclusive [rising, single point] | – |
| O=C(Nc1ccccc1)Nc1cccc2nsnc12 | inconclusive [cytotoxic, partial curve] | – |
| CN(C)CCOCCOc1ccc(Cl)cc1Br | inconclusive [cytotoxic, partial curve, poor fit] | – |
| COc1ccc(-c2ccc(NC(=O)c3ccco3)cc2)nn1 | active: 18.4 µM | – |

| Structure (SMILES) | Potency | activity, negative = less viability |
| --- | --- | --- |
| COc1ccc(Cl)cc1NC(=O)CN1CCc2ccccc2C1 | inactive | – |
| Cc1ccc(CN2C(=O)CCC2C(=O)NCc2cccnc2)cc1 (stereo not drawn) | inactive | – |
| COc1ccccc1NS(=O)(=O)c1cc(N/C(=N\S(=O)(=O)c2ccccc2)c2ccc(F)cc2)ccc1Cl | inactive | – |
| CN1C(=O)c2ccc(NC(=O)C3CC3)cc2C1=O | inactive | – |
| CCOC(=O)NNc1nncc2ccccc12 | inconclusive [rising, partial curve, poor fit] | – |
| CCc1nc2ccc(C(=O)NCc3ccc4c(c3)OCO4)cn2c1N(CC)Cc1cccc(Br)c1 | inconclusive [cytotoxic, partial curve] | – |
| COc1ccc(N(CC(=O)Nc2cccc(N(C)S(C)(=O)=O)c2)S(=O)(=O)c2ccc(C)cc2)cc1 | inactive | – |
| O=[N+]([O-])c1ccc(CN2CCN(c3ccc([N+](=O)[O-])cc3)CC2)cc1 | inconclusive [cytotoxic, single point] | – |
| CN(C)CCCNc1nc2sc3c(c2c(=O)n1CCc1ccccc1)CCCCC3 | – | inconclusive: -19% [cytotoxic] |
| COc1ccc(C2NCCc3c2[nH]c2ccccc32)cc1COc1ccc(F)cc1 (stereo not drawn) | inconclusive [cytotoxic, single point] | – |
| N#C/C(=N\Nc1ccc(Cl)cc1)C(N)=S | active: 9.2 µM | – |
| Nn1c(SCC(=O)N2CCOCC2)nnc1-c1ccccc1Cl | inactive | – |
| COc1ccc(COC(=O)c2cc([N+](=O)[O-])ccc2N2CCOCC2)cc1F | active: 0.0058 µM | – |
| CCC1S/C(=N/N=C/c2cccs2)NC1=O (stereo not drawn) | inactive | – |
| Cc1sc2ncnc(N3CCC(C(=O)N(C)CC(=O)Nc4cccc(F)c4)CC3)c2c1C | inconclusive [cytotoxic, single point] | – |
| Cc1cc(C(=O)Nc2ccc(OCc3ccccc3)cc2)c(C)o1 | inconclusive [cytotoxic, single point] | – |
| O=C(C1=C[C@H](c2ccc(C(F)(F)F)cc2)C[C@H](OCc2ccc(CO)cc2)O1)N1CCN(Cc2ccc3c(c2)OCO3)CC1 | inactive | – |
| CCN(CC)c1ccc(NC(=O)c2ccc(=O)[nH]c2)cc1S(=O)(=O)Nc1ccc(OC)cc1 | inconclusive [cytotoxic, single point] | – |
| Cc1ccc(O)c(-c2cc(C(=O)Nc3ccc(S(=O)(=O)N4CC(C)OC(C)C4)cc3)[nH]n2)c1 (stereo not drawn) | inconclusive [cytotoxic, partial curve] | – |
| COCCCNC(=S)Nc1cc2oc3ccccc3c2cc1OC | active: 2.31 µM | – |
| CCN(CC)C(=O)c1[nH]cnc1C(=O)N[C@@H](C)C(=O)OCc1ccccc1 | inactive | – |
| CN1CCN(CCc2nc3cc(NC(=O)COc4ccc(Cl)cc4)ccc3n2C)CC1 | inconclusive [cytotoxic, single point] | – |
| COC(=O)c1ccc(Cn2nc(-c3cc(C)ccc3C)ccc2=O)cc1 | inconclusive [cytotoxic, single point] | – |
